Experimental data: the RNAGym collection of RNA variant scans (doi:10.1073/pnas.2313332121)
Variants at the floor of the assay are shown more often than the library holds them.

B1: TPR 5TU (parent)
chain: GGAUCUUCUCGAUCUAACAAAAAAGACAAAUCUGCCACAAAGCUUGAGAGCAUCUUCGGAUGCAGAGGCGGCAGCCUUCGGUGGCGCGAUAGCGCCAACGUUCUCAACUAUGACACGCAAAACGCGUGCUCCGUUGAAUGGAGUUUAUCAUG

Variants of: B1
Test: polymerase ribozyme fitness, log enrichment relative to wild type (log ratio); higher = more active; in vitro selection for triplet polymerase activity
Outline: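 The heterodimeric triplet polymerase ribozyme's subunits were each mutagenized into PCR-built libraries and transcribed. Every library was selected once, in triplicate, by annealing with a biotinylated primer, the partner subunit and triplets, incubating frozen at −7 °C, gel-excising extended constructs, capturing on streptavidin beads and running RT-PCR. Input and output libraries were Illumina-sequenced, with genotypes kept only at ≥10 input reads and ≥1 read per output. Fitness, from inverse-variance-weighted replicate averages, is the base-2 logarithm of genotype enrichment over wild-type enrichment.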

Point of comparison: A19C A22G U31G C38U A107U G117A, “polymerase ribozyme fitness (log ratio)” value -4.16. Against it:
- C18A C69G C96U C103A — higher, -2.88
- C18G A21U A29C A37U C57U C95U U127G U148G — higher, -3.75
- A19C C32A G46A G59A G71A G74U A91U A97G — lower, ≤ -4.2
- A19C C35G U53A C57A G92A U101C — within 0.2 log units, -4.13
- C18G A28U A66U G94U C95A — lower, ≤ -4.2
- C18G U44G U55G G58C C93A — lower, ≤ -4.2
- A19C A30C U44A C79A G94C C96A A113G C116A A120C C129A — lower, ≤ -4.2
- C18U A30G C87U — lower, ≤ -4.2
- C18G G80C — lower, ≤ -4.2
- C18G U53A U139C — lower, ≤ -4.2
- A19C A21U C43A C96G A107U U148A — lower, ≤ -4.2
- C18G G83U C87A C105G A137G — lower, ≤ -4.2
- A19C C36U C95G A98G U127A U151C — lower, ≤ -4.2
- C18G U56A A60G G74A C85G — lower, ≤ -4.2
- C18U A40U G59A U61G U78A G94A — lower, ≤ -4.2
- C18G G80U C116U — higher, -1.62
- C18U A24G G50A C72U G92A U102G G117U A138U — lower, ≤ -4.2
- C18U C27G G92U C103G — lower, ≤ -4.2
- C18U U53G C54A A91G A110G C114G — lower, ≤ -4.2
- C18U G65U A73G C85U G141C — lower, ≤ -4.2
- C18G G48A C69U G88A A121U G141C — lower, ≤ -4.2
- A19C G74C C116A — lower, ≤ -4.2
- A19C C54U U77G A98G C129A — lower, ≤ -4.2
- A19C A52G G92C C96A U151G — lower, ≤ -4.2
- C18A A52G C87A G92C C95A U104A — lower, ≤ -4.2
- C18G A19G C27A C87U G94C A137C — lower, ≤ -4.2
- C18G A60C G84U C125U — higher, -3.76
- C18G A52U C76U C79G C132G U139C — lower, ≤ -4.2
- C18U A37U U55C C108A A110G — lower, ≤ -4.2
- C18G C85A U145G A147U — higher, -0.193
- C18G A37C C93A A115G — within 0.2 log units, -4.01
- C18U A40C C57A G126U — higher, -0.291
- C18G C35U C96A A97U C116U G117A A138C G140U — lower, ≤ -4.2
- C18U C96U — higher, -0.659
- A19C C54A C96U A122G G133C — higher, -2.39
- C18A U31G C35A A64G C79A G92U C93U C105U U134C — lower, ≤ -4.2
- C18A U31C C32G C35U G58C C85U — lower, ≤ -4.2
- A19C C87U — higher, -0.722
- C18G G25U A28U G71C A91C C96U C114U A121C A137U — lower, ≤ -4.2
- C18U G34A G48U C75U G94C G141U — lower, ≤ -4.2
- C18U C27A A47G U56A C57A G59U C69G C93G G143U U146C — lower, ≤ -4.2
- C18G C63G G68U G71A U78G C85G G100A G141U — lower, ≤ -4.2
- A19C A28U C75A C85U G92U — lower, ≤ -4.2
- C18G A49C C57G C87A G128U U146G — lower, ≤ -4.2
- C18A A23C C57U A73G C95A G136U G140U G143C — lower, ≤ -4.2
- C18A A22C A23U A37C C72U G88A C125U U146G — lower, ≤ -4.2
- C18U G84U G88A A91U C96A C125U — lower, ≤ -4.2
- C18G A26G A40C A91G C95G A122G C149G — lower, ≤ -4.2
- C18U A26G U82G G92A — lower, ≤ -4.2
- C18U A37C A49C C51U U55A C95U U127A G136A U139A — lower, ≤ -4.2
- C18U A19U G88A C95A C96U — lower, ≤ -4.2
- C18G U55A A98G A106G G112U A120U — higher, -3.87
- C18G A37C A52U U61G U82A G92A — lower, ≤ -4.2
- C18G A40U G68A C72U — lower, ≤ -4.2
- C18G U44C G58C U61G C85G C114U C118G — lower, ≤ -4.2
- C18U G46U G50C G83A — lower, ≤ -4.2
- C18G A40G A52C G58A G84U A91U U151G — lower, ≤ -4.2
- C18G A23U A39G U55G A73U A89G A97U — lower, ≤ -4.2
- C18A A21C C35U A37G U55G A60G U61A G92U U101G C116G C125U — lower, ≤ -4.2
- C18G A23C G46C A47G G80C C85A — lower, ≤ -4.2
- C18G C57U — higher, -0.371
- C18A C85U G88C C118A C131U — lower, ≤ -4.2
- C18G A49G A73U C93G G117A C123A G136U U144G — lower, ≤ -4.2
- A19C C43A G59C C116A — lower, ≤ -4.2
- C18A U31G G84C A89U — higher, -2.91
- C18U A22U C43U C95U U101G G136A A138U — lower, ≤ -4.2
- A19C A28C C93G U102G — lower, ≤ -4.2
- C18U A52G G94C A97C C114U C149A — lower, ≤ -4.2
- C18G G50A C76U A115G A119G — higher, -3.18
- C18G A52C C69G C75G G94A C95U A113U — lower, ≤ -4.2
- C18U G84A C118A A142C U144C — lower, ≤ -4.2
- C18A C27A A40U C87U C118U — within 0.2 log units, -4.17
- C18G A22G A23C C69A G86U — lower, ≤ -4.2
- C18G A137G U145G — higher, -2.16
- C18U U31C U56G A138U G140A — within 0.2 log units, -4
- C18U A19C C35A G83C C95U C103G A106G — lower, ≤ -4.2
- C18U C132U U135A — higher, -2.33
- A19C A26C A29U C72A G88A U144C C149A — lower, ≤ -4.2
- A19C A30G C72U U82A C85U A91U — lower, ≤ -4.2
- A19C A28U G46C C63A G71A U101C C114U A122U G143C — lower, ≤ -4.2
- C18G U44A A89U C93G U109C U127A — lower, ≤ -4.2
- C18G G25A G50C — lower, ≤ -4.2
